This series concerns ATP. Nature of the series: switch fluorescence ratio, 500 uM ATP over buffer (Cy3 cluster intensity, sum of 5 cycles each) (fold (ratio)); higher = stronger signal-on switching upon ATP binding; sequences stand for … in TCGTCGGCAGCGTCAGATGTGTATAAGAGACAGTTTTTTTTTTTTTTTTTTTTTTTTT…TC. Particulars: aptamer strand: ATP DNA aptamer (quencher-CACCTGGGGGAGTATTGCGGAGGAAGG + anchor), 100 nM annealed; ATP concentration: 500 uM; one replicate. Summed up: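 Switching-strand clusters labelled with Cy3 on a modified Illumina MiSeq flow-cell were annealed to 100 nM quencher-labelled ATP aptamer, imaged in selection buffer, and re-imaged after 15 min with 500 uM ATP at 22 °C. This was done over five cycles with NaOH stripping and re-annealing in between. The fluorescence ratio is summed target-cycle over summed buffer-cycle Cy3 intensity per cluster, averaged per switch-domain sequence, excluding clusters outside 100-1000 RFU.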

Values marked as one replicate rest on one cluster of the flow cell; about a third of the high ones do not repeat.
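Also: ATP exposure 15 min at 22 °C before imaging.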

On to ATGAAGTGTT, for which the switch fluorescence ratio was 0.976. Under AAAACGTGTG stands 1.08. Take CAATAGTTAC: the switch fluorescence ratio was determined as 1.08. For CGGTGCAACG, the switch fluorescence ratio was 0.975. Under AAGGACGACA stands 1.16; under CGAGGGAGA, 0.981; under CGAGGCATTT, 2.17. With GGGCTATCCA, the switch fluorescence ratio was determined as 0.965.

Regarding GAGTTGACTT, the switch fluorescence ratio was 1.04.

On to CTAAGAGGTG, for which the switch fluorescence ratio is 1.05. Under CGAAAGCCGG stands 0.967. Under GGCCCCGAGG stands 1; under CATTTACGGG, 1; under TTATCGTAA, 0.996. In the case of CCATTACGTA, the switch fluorescence ratio is 1.16. For TTTATTTCCG, the switch fluorescence ratio came to 0.998.

For AGGGGCCTTT, the switch fluorescence ratio is 1. Under TTGCTGACGT stands 1.02; under CGGCCAGATG, 1.09; under GGGATGTTTA, 1.03.

For TAACTGCCG, the switch fluorescence ratio stood at 1.09. Take CAGATCGAGC: the switch fluorescence ratio is 0.98. GAGATTATAG: the switch fluorescence ratio was determined as 0.998. Consider GGATTTTGCA, for which the switch fluorescence ratio is 0.98. Under GTTCCGCCGG stands 1.16; under CGTCATTTCT, 0.981; under ATCCATCTGG, 0.996.

Regarding GCGGATTTAG, the switch fluorescence ratio turned out to be 0.978.

As for AAAGGGGCCC, the switch fluorescence ratio is 1.01. Under CATTTTCTGT stands 1.05; under GAGCATTCG, 1.07; under TTTTCATGCG, 0.989.

On to CGCGCAGCGA, for which the switch fluorescence ratio was 1.04.

In the case of AGGCTTTATG, the switch fluorescence ratio was 1.01. In the case of CGTGCGACTT, the switch fluorescence ratio amounted to 1.02.

As for ATTCACATGA, the switch fluorescence ratio was 1.03.

Turning to ATTTTCCTTA, the switch fluorescence ratio amounted to 0.99.

Consider CAACGTACGT, for which the switch fluorescence ratio stood at 1.15.

Consider TAGCTAAGTG, for which the switch fluorescence ratio was 1.02. Under GATCGAAAGT stands 1. GATTACCGAT: the switch fluorescence ratio came out at 1.04. Under GTTCCCAGCG stands 1.16; under TCTGCTTTTT, 1.06. For the sequence ATTAACGTCT, the switch fluorescence ratio amounted to 1. Under TATTGTCGTA stands 1.01; under ATCGGCAGCT, 1.02; under GTCCGGCGTA, 1.05.

In the case of GCCCACAAAT, the switch fluorescence ratio was found to be 0.986. Under TAGACTTTCT stands 1.02; under AAGGAGTTAG, 1.02; under GTATTGGTGG, 1.01.

Regarding TTGCTTTATG, the switch fluorescence ratio stood at 1.03. Take TAAATCTCCG: the switch fluorescence ratio was determined as 1.09. Under AACAACAAAT stands 1.03. Under ACGATGTTTG stands 0.978; under TGTAACGACG, 1.04. Under TACGATGGGA stands 1.01; under GCTTCAGAGG, 0.987; under GCTCACGCGC, 1.55. As for TTACGCTGTT, the switch fluorescence ratio was found to be 1.01.

On to AGCCAGTTA, for which the switch fluorescence ratio amounted to 0.955. Under CGACATAAGC stands 1.19; under TTAGGGCGCA, 0.993; under GTTACCGGTC, 1.05. Under CACAATACGA stands 4.6; under GGTTACCGCT, 1.06; under ATGGTTGGTT, 0.993. Under GGTGTCCGGC stands 0.928; under AATACAAGGA, 1; under CATCGCGGGG, 1.01. ATACACAAAA: the switch fluorescence ratio worked out at 1.13.

As for AAACGACTGA, the switch fluorescence ratio was found to be 1.05.

In the case of AAAGGCCTTG, the switch fluorescence ratio is 1.

Regarding CCATATCCAC, the switch fluorescence ratio worked out at 1.03. Under TGAGTTCCTG stands 0.984; under ATCGTTTGAC, 1.03; under AAAGACCCTA, 0.974. As for CTTATATATT, the switch fluorescence ratio was found to be 1.03. In the case of AGGACCAGCC, the switch fluorescence ratio was 1.14. Under GTGGGCGACT stands 1.03; under GGGTCTGTTA, 1; under GGTAGCACGG, 1.01. Under CCGACCGATG stands 2.24; under AAGCCACCTC, 1.16.

Take CAGGAAGGCA: the switch fluorescence ratio is 1.01. As for CAGACCTCTT, the switch fluorescence ratio was 1. Under AGCAGGCAGT stands 1; under TAAACCATGC, 1.16.

GACCGTAGCC: the switch fluorescence ratio came out at 1.54. As to TGATTATACC, the switch fluorescence ratio was 0.986.

Regarding AAGATCCGAA, the switch fluorescence ratio stood at 1.02. For the sequence TACAGTTGTT, the switch fluorescence ratio is 1.03. For AGAATTCGCC, the switch fluorescence ratio stood at 0.997. Turning to AAGGTCGTTA, the switch fluorescence ratio turned out to be 0.992. Under CCCGGTAGGA stands 1.01; under TTATTCGCTT, 1.04.

Consider TTCTGCTCCT, for which the switch fluorescence ratio came out at 1.04. Under GGACGGTGGT stands 0.983; under TACAAGGGTC, 0.957. Under ACCAGCGGC stands 0.962; under TCAATCTTGA, 0.974. For CTCGTACGGT, the switch fluorescence ratio came out at 0.988. With CGGTCTTCGG, the switch fluorescence ratio amounted to 1.02.

Take GGTCTGATCT: the switch fluorescence ratio is 0.984.

TTTTACTGTG: the switch fluorescence ratio came to 0.998.

GATGGCATG: the switch fluorescence ratio worked out at 0.981. TCGTGGCCGC: the switch fluorescence ratio amounted to 1.22.

For the sequence GCCTACGTGA, the switch fluorescence ratio is 2.68.

As for GGTTGGTACA, the switch fluorescence ratio was determined as 0.979. Under ATCCGGCTGC stands 1.11.

TCCGCTTAGG: the switch fluorescence ratio came out at 1.2. Consider CCGTTGCGGT, for which the switch fluorescence ratio amounted to 1.17. Turning to GGGGGGCTCT, the switch fluorescence ratio is 0.929. For TGGCCACCAC, the switch fluorescence ratio stood at 1.1.

In the case of CGAACTTGAG, the switch fluorescence ratio was 0.977. Under GTTGTTTACT stands 1.02.

Regarding AGGGGACTCA, the switch fluorescence ratio worked out at 1.02. Under TTACATGCTG stands 1.03; under ATCACCATAC, 1.34; under GGCGTGTCGG, 1.04.
